Results: PubChem BioAssay AID504333 (National Center for Advancing Translational Sciences (NCATS), 2011)
Hit rate of the full screen: of about 360,000 compounds, about 16,000 (4.4%) were called active. The inconclusive results got no clear call from the source; some entries with a clear call stand among them for comparison. The call rests on the fitted dose curve; in most records, active means well fitted inhibition curve with a large enough effect; inconclusive means small, poorly fitted or top-dose-only effect; inactive means no such curve, though single readings can be large or run the other way. Potencies of inconclusive entries are doubtful fits and often do not repeat.

molecular target: Bromodomain adjacent to zinc finger domain protein 2B (Homo sapiens) (UniProt Q9UIF8); assay: qHTS Assay for Inhibitors of BAZ2B; details: AlphaScreen BAZ2B-H3K14Ac peptide displacement; series mostly up to 114 µM; further: nearly all actives have a fitted effect of over 60% in size
How it was run: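 Multi-concentration screen (max 110 uM) measuring displacement of acetylated histone H3 peptide from BAZ2B by AlphaScreen, using 50 nM protein, 50 nM peptide and 10 ug/mL streptavidin donor plus Ni-chelate acceptor beads.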
Potency means the concentration at half of the fitted maximal effect; tags describe the fitted curve by direction and shape.

UniProt Q9UIF8, sequence (Q9UIF8 whole entry, looked up, the tested form may be a part): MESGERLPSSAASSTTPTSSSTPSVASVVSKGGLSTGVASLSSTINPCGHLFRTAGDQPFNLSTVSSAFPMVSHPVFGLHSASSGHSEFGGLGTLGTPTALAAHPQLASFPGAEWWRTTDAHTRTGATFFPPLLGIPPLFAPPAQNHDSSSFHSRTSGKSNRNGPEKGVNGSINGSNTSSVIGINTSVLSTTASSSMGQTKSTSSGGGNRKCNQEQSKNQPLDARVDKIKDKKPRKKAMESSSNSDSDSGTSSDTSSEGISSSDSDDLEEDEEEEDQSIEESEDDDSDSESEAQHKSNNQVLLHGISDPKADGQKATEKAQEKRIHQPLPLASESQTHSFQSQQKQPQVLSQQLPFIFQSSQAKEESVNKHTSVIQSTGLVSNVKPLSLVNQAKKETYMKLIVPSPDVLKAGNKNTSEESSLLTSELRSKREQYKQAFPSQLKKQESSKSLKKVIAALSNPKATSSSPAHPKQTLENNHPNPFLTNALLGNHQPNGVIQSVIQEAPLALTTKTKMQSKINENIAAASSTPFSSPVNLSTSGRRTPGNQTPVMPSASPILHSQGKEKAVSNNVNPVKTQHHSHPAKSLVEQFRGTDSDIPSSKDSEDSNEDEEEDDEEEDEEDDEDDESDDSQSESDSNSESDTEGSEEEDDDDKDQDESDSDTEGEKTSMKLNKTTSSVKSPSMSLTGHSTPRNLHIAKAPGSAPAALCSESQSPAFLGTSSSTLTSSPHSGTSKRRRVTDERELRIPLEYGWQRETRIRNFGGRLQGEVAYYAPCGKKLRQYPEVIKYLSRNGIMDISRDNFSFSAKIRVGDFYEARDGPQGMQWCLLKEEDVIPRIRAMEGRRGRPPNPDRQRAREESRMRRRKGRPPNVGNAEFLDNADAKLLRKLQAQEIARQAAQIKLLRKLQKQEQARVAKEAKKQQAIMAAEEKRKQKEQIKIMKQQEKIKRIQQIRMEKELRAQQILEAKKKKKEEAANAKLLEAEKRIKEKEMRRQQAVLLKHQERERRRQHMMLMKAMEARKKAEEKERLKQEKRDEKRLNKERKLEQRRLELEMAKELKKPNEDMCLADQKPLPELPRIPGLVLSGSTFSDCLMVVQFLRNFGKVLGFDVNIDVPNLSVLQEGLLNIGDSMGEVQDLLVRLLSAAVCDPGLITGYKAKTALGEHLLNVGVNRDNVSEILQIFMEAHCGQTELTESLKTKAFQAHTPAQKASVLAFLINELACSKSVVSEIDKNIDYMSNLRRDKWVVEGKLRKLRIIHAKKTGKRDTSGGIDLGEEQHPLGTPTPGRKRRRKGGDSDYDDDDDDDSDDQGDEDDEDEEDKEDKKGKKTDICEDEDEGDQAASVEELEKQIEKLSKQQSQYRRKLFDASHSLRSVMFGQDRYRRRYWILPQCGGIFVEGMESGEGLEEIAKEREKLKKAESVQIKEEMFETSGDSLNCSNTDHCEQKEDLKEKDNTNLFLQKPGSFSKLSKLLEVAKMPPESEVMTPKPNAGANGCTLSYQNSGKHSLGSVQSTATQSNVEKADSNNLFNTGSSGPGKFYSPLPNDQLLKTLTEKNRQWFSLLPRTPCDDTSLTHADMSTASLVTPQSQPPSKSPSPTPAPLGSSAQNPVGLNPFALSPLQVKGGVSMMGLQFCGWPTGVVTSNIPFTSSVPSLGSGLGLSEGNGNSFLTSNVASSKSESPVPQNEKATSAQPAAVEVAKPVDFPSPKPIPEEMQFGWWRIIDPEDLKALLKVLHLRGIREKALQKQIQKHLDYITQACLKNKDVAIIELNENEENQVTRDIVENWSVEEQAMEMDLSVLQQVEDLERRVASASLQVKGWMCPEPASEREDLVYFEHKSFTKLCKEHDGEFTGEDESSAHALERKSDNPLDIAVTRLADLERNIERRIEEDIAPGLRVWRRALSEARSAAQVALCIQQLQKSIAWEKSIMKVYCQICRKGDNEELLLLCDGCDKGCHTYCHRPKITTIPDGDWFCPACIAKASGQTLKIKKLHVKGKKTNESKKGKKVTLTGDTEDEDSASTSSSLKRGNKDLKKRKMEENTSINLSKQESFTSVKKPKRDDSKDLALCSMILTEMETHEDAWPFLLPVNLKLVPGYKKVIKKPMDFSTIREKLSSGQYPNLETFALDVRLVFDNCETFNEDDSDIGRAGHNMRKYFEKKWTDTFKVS

SMILES	Potency
CCc1cccc(C)c1NC(=S)NCCc1c(C)[nH]c2ccc(C)cc12	active: 25.1 µM
Cc1cc(C(=O)CN2C(=O)CN(C)C2=O)c(C)n1-c1cccc(S(=O)(=O)N2CCOCC2)c1	inactive
COc1ccc(C(=O)CSc2nnc(CNC(=O)c3ccccc3)o2)cc1	inconclusive: 1 µM [inhibitor, full curve, poor fit]
COCC(C)n1c(C)cc(C(=O)COc2ccc(C)nc2[N+](=O)[O-])c1C (configuration not stated)	inconclusive: 79.4 µM [inhibitor, single point]
Oc1ccc(-c2sc(Nc3ccccc3)n[n+]2-c2ccc(F)cc2)cc1	inconclusive: 89.1 µM [inhibitor, single point]
COc1ccc(-c2[nH]ncc2CN(C)Cc2ccccn2)c(OC)c1	inconclusive: 89.1 µM [inhibitor, single point]
N#C/C(=C\c1ccc([N+](=O)[O-])cc1)C(=O)NCCCn1ccnc1	inconclusive: 89.1 µM [inhibitor, single point]
O=C(COC(=O)/C=C/c1cccc(F)c1)Nc1ncccn1	active: 56.2 µM
Cc1cs/c(=N\N=C\c2ccccc2)n1Cc1ccco1	active: 12.6 µM
C/C(=N\N1CCN(c2ccccc2)CC1)c1ccco1	inconclusive: 70.8 µM [inhibitor, single point]
Cc1cccc(N(CC(=O)NCCSCc2cccc(Cl)c2)S(=O)(=O)c2ccccc2)c1C	inactive
Cc1nnc(Cl)c2nn(-c3ccccc3F)c(C)c12	inconclusive: 89.1 µM [inhibitor, partial curve]
CC1CCCN(C(=O)c2cc3ccccc3cc2O)C1 (configuration not stated)	inactive
Cc1ccc(C(=O)N2CCN(c3cc4c(cc3[N+](=O)[O-])n(C)c(=O)n4C)CC2)cc1	active: 50.1 µM
COCCNCCCCOc1ccc(Br)cc1C	active: 50.1 µM
NC(=O)c1cc2ccc(O)cc2oc1=Nc1ccccc1	inconclusive: 89.1 µM [inhibitor, single point]
COc1ccc(C(=O)NNc2ncnc3c2cnn3-c2cccc(Cl)c2)cc1OC	inactive
Cc1ccnc2c1ccc1c(C)ccnc12	active: 4.47 µM
Cc1cc(CNC(=O)COc2ccc(C)c(C)c2)c2ccccc2n1	inactive
COC(=O)c1cc(CSc2nnc(NC3CCCCC3)s2)oc1C	inconclusive: 50.1 µM [inhibitor, partial curve]
CN1C(=O)CSC1=S	inconclusive: 79.4 µM [inhibitor, single point]
Cc1ccccc1C1C(C#N)=C2N=C(N)c3ccccc3N2C2=C1C(=O)CCC2 (configuration not stated)	inconclusive: 50.1 µM [inhibitor, partial curve]
CCOc1ccccc1NC(=O)CSc1nnc(-c2ccccc2Cl)n1Cc1ccco1	inconclusive: 50.1 µM [inhibitor, partial curve]
O=C(COC(=O)c1ccc(O)cc1O)NC1CCCCCC1	inactive

SMILES	Potency
C=CCn1c(=O)/c(=C/c2ccc(Cl)cc2)s/c1=C(/C#N)c1nnc2n1CCCCC2	inconclusive: 50.1 µM [inhibitor, partial curve]
Nc1c(C(=O)Nc2ccccc2F)sc2nc3c(cc12)CCCCCC3	inactive
COc1ccc(NC(=O)N2CCOc3ccc(Cl)cc32)cc1	inconclusive: 79.4 µM [inhibitor, partial curve]
CC1CN(Cc2ccccc2)c2nc3c(c(=O)[nH]c(=O)n3C)n2C1 (configuration not stated)	inactive
COc1ccccc1C(=O)N(CCC1CCCN1C)c1nc2ccccc2s1 (configuration not stated)	inactive
CCOc1ccccc1NC(=O)CCNS(=O)(=O)c1cccc2nonc12	inactive
CC(C)Oc1ccc(C(=O)NCC(c2ccc(N(C)C)cc2)N2CCCC2)cc1 (configuration not stated)	inconclusive: 44.7 µM [inhibitor, partial curve]
CCOc1ccccc1NC(=O)C1CCCN1S(=O)(=O)c1ccc2c(c1)C(C)(C)C(=O)N2C (configuration not stated)	inconclusive: 79.4 µM [inhibitor, single point]
CC(NC(=S)NC1CCCCC1)C(c1cccs1)N1CCOCC1 (configuration not stated)	inconclusive: 79.4 µM [inhibitor, single point]
COC(=O)c1ccccc1NC(=O)c1cc2nc(C3CC3)cc(C(F)(F)F)n2n1	inconclusive: 79.4 µM [inhibitor, single point]
CC(=O)c1c(C)[nH]c(C(=O)OC(C)C(=O)Nc2ccc(C)c(S(=O)(=O)N3CCOCC3)c2)c1C (configuration not stated)	inconclusive: 89.1 µM [inhibitor, single point]
C/C=C\C=C\C(=O)Nc1cccc(C2=NOC3(C2)C[C@@H](C(N)=O)N(C(=O)C(c2ccccc2)c2ccccc2)C3)c1 (some centres not stated)	inconclusive: 79.4 µM [inhibitor, single point]
O=C(Nc1ccccc1N1CCCC1)c1ccc2ccccc2c1	inconclusive: 22.4 µM [inhibitor, single point]
CCc1nnc2c(Nc3ccc(N(CC)CC)cc3C)nc3ccccc3n12	active: 31.6 µM
CN(C)CCn1c(=O)n(-c2cccc(Cl)c2)c(=O)c2c3c(sc21)CCCCC3	inconclusive: 70.8 µM [inhibitor, single point]
Oc1ccc(/C=N/Nc2cccc(Cl)n2)c(O)c1	inconclusive: 89.1 µM [inhibitor, single point]
O=C(O)Cc1ccc(C(=O)CSc2ccccc2)s1	active: 50.1 µM
Fc1ccc(-c2csc(=S)[nH]2)cc1	active: 50.1 µM
Cc1cc(/C=N\NC(=O)COc2cccc3cccnc23)c(C)n1-c1ccccc1	inconclusive: 39.8 µM [inhibitor, partial curve]
COc1ccc(NC(=O)c2sc(=S)[nH]c2N)cc1	inconclusive: 89.1 µM [inhibitor, single point]
Cc1cc(OCC(O)CN2CCN(c3cccc(Cl)c3)CC2)ccc1Cl (configuration not stated)	inactive
O=C(N/N=C/c1ccccc1O)c1cccc2ccccc12	inactive
Cc1cc(N2C(=O)C(O)=C(C(=O)c3cc4ccccc4o3)C2c2ccc(Br)cc2)no1 (configuration not stated)	inconclusive: 89.1 µM [inhibitor, single point]
